# Experimental data taken from PubChem BioAssay AID1460 (National Center for Advancing Translational Sciences (NCATS), 2008).
# Where “and” joins values, the source holds several entries; their conditions need not be identical. Equal entries are not always repeated. Among all 270,000 compounds or so, about 5,800 (2.1%) were called active. Inconclusive results, whose numbers are uncertain, are shown with a selection of clear calls. The call rests on the fitted dose curve; in most records, active means well fitted inhibition curve with a large enough effect; inconclusive means small, poorly fitted or top-dose-only effect; inactive means flat fitted curve, though single readings scatter. Potencies beside an inconclusive call are fits to weak or partial responses and may not hold up.
# Biological target: Microtubule-associated protein tau (Homo sapiens) (UniProt P10636)
# UniProt P10636, sequence (P10636 whole entry, looked up): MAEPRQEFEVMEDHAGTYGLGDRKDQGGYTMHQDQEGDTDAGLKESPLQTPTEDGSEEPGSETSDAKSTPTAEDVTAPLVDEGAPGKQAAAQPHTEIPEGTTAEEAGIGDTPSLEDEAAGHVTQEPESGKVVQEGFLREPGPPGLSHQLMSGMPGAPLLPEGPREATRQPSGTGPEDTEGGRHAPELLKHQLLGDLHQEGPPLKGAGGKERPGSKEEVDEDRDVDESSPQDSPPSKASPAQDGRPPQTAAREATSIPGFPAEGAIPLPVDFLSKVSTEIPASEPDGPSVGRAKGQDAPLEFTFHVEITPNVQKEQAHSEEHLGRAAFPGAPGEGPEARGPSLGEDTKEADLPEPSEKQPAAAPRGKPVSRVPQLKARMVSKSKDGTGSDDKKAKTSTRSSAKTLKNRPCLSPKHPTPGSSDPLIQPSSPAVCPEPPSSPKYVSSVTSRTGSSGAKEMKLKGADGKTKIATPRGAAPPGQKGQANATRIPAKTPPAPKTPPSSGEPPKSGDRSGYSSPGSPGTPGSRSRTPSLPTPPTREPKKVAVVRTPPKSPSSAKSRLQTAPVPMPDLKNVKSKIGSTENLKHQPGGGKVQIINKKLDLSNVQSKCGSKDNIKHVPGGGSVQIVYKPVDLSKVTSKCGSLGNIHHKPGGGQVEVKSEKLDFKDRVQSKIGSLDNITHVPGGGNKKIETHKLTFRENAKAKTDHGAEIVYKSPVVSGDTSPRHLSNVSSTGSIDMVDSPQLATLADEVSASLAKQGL
# Test: qHTS for Inhibitors of Tau Fibril Formation, Thioflavin T Binding; further: nearly all actives have a fitted effect of over 55% in size
# Conditions: recombinant tau K18 P301L (four-repeat tau fragment), heparin-induced fibrillization, ThT fluorescence; series mostly up to 57.4 µM
# Procedure, shortened: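 Tau K18 P301L fragment (15 uM unlabeled plus 0.24 uM Alexa 594-labeled) in 100 mM sodium acetate pH 7 with compound, fibrillization induced by 20 uM heparin for 6 hr at 37 C. Thioflavin T (30 uM) added, fluorescence read after 1 hr (ex 450, em 510 nm).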
# On the % scale 0 is the no-effect control and ±100 the full control effect; potency means the concentration at half of the fitted maximal effect; tags describe the fitted curve by direction and shape.
Structure (SMILES),Potency,"activity, negative = inhibition"
CC(=NCc1cccc(Cl)c1)c1nc(-c2ccco2)oc1O,inactive,
CC(=O)Nc1ccc(NC(=O)COc2ccc3c(c2)CCC3)cc1,"inconclusive: 25.1 µM [inhibitor, partial curve]",
Cc1ccccc1NC(=O)CSc1ccsc1[N+](=O)[O-],"inconclusive: 39.8 µM [inhibitor, single point]",
O=C(CCN1C(=O)c2ccccc2C1=O)NC(=S)Nc1ccccc1,"inconclusive: 1.78 µM [inhibitor, partial curve]",
FC(F)(F)c1cc(-c2ccco2)nc(N2CCN(Cc3ccccc3)CC2)n1,"inconclusive: 39.8 µM [inhibitor, single point]",
CCCCN(CC)C(=O)C1CCCN(c2ncnc3c2nc2n3CCCCC2)C1 (configuration not stated),inactive,
O=C(Nc1cccc(C(F)(F)F)c1)Nc1cccs1,"inconclusive: 15.8 µM [inhibitor, partial curve]",
O=C(NC(=S)Nc1ccc(NC(=O)c2cccs2)cc1)c1ccc([N+](=O)[O-])cc1,"inconclusive: 0.708 µM [inhibitor, full curve]",
CC(C)(C)OC(=O)NCCCC1=CC2=CC(=O)C(C)(OC(=O)c3cnc4ccccc4n3)C(=O)C2=CO1 (configuration not stated),inactive,
COC(=O)CCCC1=CC2=C(c3ccccc3)C(=O)C(C)(OC(=O)C3CCCC3)C(=O)C2=CO1 (configuration not stated),"inconclusive: 39.8 µM [inhibitor, single point]",
O=C(CSc1nc2ccsc2c(=O)n1-c1ccc(Br)cc1)NCc1ccccc1,inactive,
COc1cccc(NC(=O)Nc2ccccc2SC)c1,"inconclusive: 2.24 µM [inhibitor, full curve]",
CC(=NC1CC1)c1c(-c2ccccc2)[nH]n(-c2nc3ccccc3s2)c1=O,"inconclusive: 39.8 µM [inhibitor, single point]",
O=C(O)Cc1sc(N/N=C\c2ccccc2)nc1-c1ccccc1,active: 10 µM,
O=C(CC1C(=O)NCCN1Cc1ccc(Cl)c(F)c1)NCCc1cccnc1 (configuration not stated),"inconclusive: 14.1 µM [inhibitor, partial curve]",
CN(C)c1ccc(-n2cccc2/C=C2/SC(=Nc3ccc(F)cc3)NC2=O)cc1,inactive,
COc1ccc2c(-c3ccccc3)cc(SCC(N)=O)nc2c1,"inconclusive: 39.8 µM [inhibitor, single point]",
Cc1cc(C)n(CC(=O)N/N=C/c2cc([N+](=O)[O-])ccc2O)n1,inactive,
S=C(Nc1ccccc1)Nn1cnnc1,"inconclusive: 39.8 µM [inhibitor, single point]",
Cc1ccc2nc(N/N=C/c3ccccc3F)nc(-c3ccccc3)c2c1,"inconclusive: 15.8 µM [inhibitor, partial curve]",
O=C(NC1CCCCC1)c1ccc(CSc2nc3ccncc3n2Cc2ccccc2F)cc1,inactive,
CCOC(=O)CN1C(=O)N[C@@H](c2cccc(C(F)(F)F)c2)[C@H](C(=O)OC)[C@H]1C,,inactive: 0.0404% [at 11.5 µM]
Cc1ccccc1OCCSc1nnc(-c2cccnc2)n1N,"inconclusive: 10 µM [inhibitor, partial curve]",

Structure (SMILES),Potency,"activity, negative = inhibition"
Cc1cc(C)n(-c2ccc(C(=O)Nc3ccc4c(c3)OCCO4)cc2)n1,"inconclusive: 25.1 µM [inhibitor, partial curve]",
CC(C)N(C(=O)Cn1cnc2cc([N+](=O)[O-])ccc2c1=O)C(C)C,"inconclusive: 14.1 µM [inhibitor, partial curve, poor fit]",
CCOc1ccc2nc(N3CCC(C(=O)Nc4cc(C)ccc4C)CC3)sc2c1,"inconclusive: 0.355 µM [inhibitor, full curve]",
CCN1CC=C2C(C1)C(c1ccc(Cl)s1)C(C#N)=C(N)C2(C#N)C#N (configuration not stated),"inconclusive: 17.8 µM [inhibitor, partial curve]",
CC(=O)N1N=C(c2ccccc2)CC1c1cn(Cc2ccccc2)c2ccccc12 (configuration not stated),inactive,
N/C(=N\OC(=O)c1cc([N+](=O)[O-])ccc1Cl)c1ccccn1,"inconclusive: 12.6 µM [inhibitor, partial curve]",
S=C(Nc1cccnc1)N1CCCCC1,inactive,
N/C(=N\OC(=O)c1cccs1)c1cccc([N+](=O)[O-])c1,"inconclusive: 31.6 µM [inhibitor, single point]",
O=C(NCCCN1CCN(CCCNC(=O)c2cc([N+](=O)[O-])ccc2Cl)CC1)c1cc([N+](=O)[O-])ccc1Cl,"inconclusive: 12.6 µM [inhibitor, partial curve]",
Cc1cccc(-c2nc(CSc3nncn4c3cc3sccc34)c(C)o2)c1,"inconclusive: 11.2 µM [inhibitor, partial curve]",
CCOC(=O)c1c(C)n(-c2ccccc2)c2ccc(OC(=O)c3cccc(Cl)c3)cc12,inactive,
COc1ccc2[nH]c3nc(SCC(=O)Nc4ccc5c(c4)OCO5)nnc3c2c1,"inconclusive: 1.58 µM [inhibitor, full curve]",
COc1ccc(-c2csc3nc(-c4ccccc4)oc(=O)c23)cc1OC,"inconclusive: 2.82 µM [inhibitor, single point]",
CC(=O)Nc1cccc(Nc2nc(-c3ccccc3)nc3ccccc23)c1,inactive,
CCOc1ccc(NC2=C(OC)C(=O)c3ccccc3C2=O)cc1,active: 10 µM,
CCCCC(=O)OC1CCC2C3CCc4cc(O)ccc4C3CC[C@]12C (some centres not stated),"inconclusive: 28.2 µM [inhibitor, partial curve, poor fit]",
COc1ccc(-c2cc(C(F)(F)F)nc(SCC(=O)N(C)Cc3cnn(C)c3C)n2)cc1OC,"inconclusive: 28.2 µM [inhibitor, single point]",
CCOc1ccc(NC(=O)c2ccc3snnc3c2)cc1,"inconclusive: 17.8 µM [inhibitor, partial curve] and inconclusive: 3.55 µM [inhibitor, full curve]",
COc1ccc(S(=O)(=O)n2nc(OC(=O)c3cccs3)cc2NC(=O)c2cccs2)cc1,"inconclusive: 12.6 µM [inhibitor, single point]",
CCOC(=O)CN1NC2(CCCCC2)NC1=S,inactive,
Cc1n[nH]c(=O)nc1Nc1ccc(O)cc1,inactive,
Cc1ccccc1Oc1cc(-n2ncc(Cl)c(Cl)c2=O)ncn1,active: 10 µM,
CCOC(=O)c1cnc2ccc(OCC)cc2c1N1CCN(c2ccccc2F)CC1,"inconclusive: 17.8 µM [inhibitor, single point]",

Structure (SMILES),Potency,"activity, negative = inhibition"
COc1cc(-c2nc3ccccn3c2Nc2ccccc2C)ccc1O,"inconclusive: 39.8 µM [inhibitor, single point]",
Clc1ccc(OCCOCCOc2cccc3cccnc23)c(Br)c1,"inconclusive: 15.8 µM [inhibitor, partial curve]",
CCOC(=O)c1cnc2c(cnn2CC)c1NN=C(C)C,"inconclusive: 20 µM [inhibitor, single point]",
Cc1ccc(OCC(=O)NNC(=O)C(=O)N2CCCC2)c(C)c1,inactive,
Cc1ccc(-n2ncc(Br)c(Br)c2=O)cc1,active: 15.8 µM,
COc1ccc(Nc2cc(C(=O)NCCCN(C)Cc3ccccc3)c3ccccc3n2)c(OC)c1,"inconclusive: 17.8 µM [inhibitor, partial curve]",
COc1ccccc1C(=O)Nc1ccc(NC(=O)c2cccs2)cc1,"inconclusive: 11.2 µM [inhibitor, partial curve]",
CCc1nnc(NC(=O)CSc2ncnc3c2cnn3-c2ccc(OC)cc2)s1,"inconclusive: 3.55 µM [inhibitor, full curve]",
O=C(Nc1nc(-c2cccs2)cs1)c1ccco1,"inconclusive: 10 µM [inhibitor, partial curve]",
COCCn1nnnc1CN(CCc1ccc(OC)c(OC)c1)Cc1cc2ccc(C)cc2[nH]c1=O,"inconclusive: 28.2 µM [inhibitor, partial curve]",
NS(=O)(=O)c1ccc(N/N=C/c2ccc3c(c2)OCO3)c([N+](=O)[O-])c1,"inconclusive: 1.26 µM [inhibitor, full curve]",
CCOc1ccccc1-c1noc(CSc2nnc(-c3ccccc3)n2-c2cccc(C)c2)n1,inactive,
CCOCCn1c(N2CCN(c3ccc(OC)cc3)CC2)nc2c1c(=O)[nH]c(=O)n2C,"inconclusive: 14.1 µM [inhibitor, partial curve]",
CCOC(=O)c1c(Nc2cccc(C(=O)OC)c2)nnc(-c2ccccc2)c1-c1ccccc1,"inconclusive: 12.6 µM [inhibitor, partial curve, poor fit]",
CCCCCn1c(NC(=O)c2ccco2)c(S(=O)(=O)c2ccc(C)cc2)c2nc3ccccc3nc21,"inconclusive: 28.2 µM [inhibitor, partial curve]",
O=C(O)/C=C/c1cn(-c2ccccc2)nc1-c1cccc([N+](=O)[O-])c1,"inconclusive: 12.6 µM [inhibitor, single point]",
CCOc1ccc(NC(=O)c2ccc3c(SCC(=O)O)c4c(nc3c2)CCC4)cc1,"inconclusive: 5.01 µM [inhibitor, partial curve]",
CC1=Nc2ccccc2/C1=C/c1sc(=N)n(-c2nccs2)c1O,active: 5.01 µM,
Cc1ccc(C(=O)C(C(=O)/C=C/c2ccccc2)=C2SCCCS2)cc1,"inconclusive: 14.1 µM [inhibitor, partial curve]",
Cc1nc(N/N=C/c2ccc(O)cc2)c2cnn(-c3ccccc3)c2n1,"inconclusive: 8.91 µM [inhibitor, partial curve]",
O=C1NCCCC2c3c(cc(Br)c(O)c3Br)OC12N1CCOCC1 (configuration not stated),"inconclusive: 39.8 µM [inhibitor, single point]",
